Some of the results follow. The full chains were built here from the parent and the listed change. Values near 0.05 are background.
B1: TEV protease; numbered along this chain (parent)
chain: MGESLFKGPRDYNPISSSICHLTNESDGHTTSLYGIGFGPFIITNKHLFRRNNGTLVVQSLHGVFKVKDTTTLQQHLVDGRDMIIIRMPKDFPPFPQKLKFREPQREERICLVTTNFQTKSMSSMVSDTSCTFPSGDGIFWKHWIQTKDGQCGSPLVSTRDGFIVGIHSASNFTNTNNYFTSVPKNFMELLTNQEAQQWVSGWRLNADSVLWGGHKVFMVKPEEPFQPVKEATQL

Variants of: B1
Assay: raw area under fraction-flipped curve 0-4 h after induction (AUC4h, not background-subtracted), DNA-recorder readout of cleavage of the substrate (dimensionless); higher = more cleavage of the substrate by the protease variant
Conditions: temperature: 34 °C; time window: 0-4 h after rhamnose induction
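Also: Bxb1 expression induced with 0.2% (w/v) L-rhamnose at OD600 near 0.5, cultures sampled hourly, flipped fraction per protease–substrate barcode pair counted by paired-end Illumina sequencing.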

Row | Variant | area with substrate ECLYFQS | area with substrate EELYFQS | area with substrate EFLYFQS | area with substrate EGLYFQS | area with substrate EILYFQS | area with substrate EKLYFQS | area with substrate ELLYFQS | area with substrate EPLYFQS | area with substrate EQLYFQS | area with substrate ERLYFQS | area with substrate ESLYFQS | area with substrate ETLYFQS | area with substrate EVLYFQS | area with substrate EWLYFQS | area with substrate EDLYFQS | area with substrate EHLYFQS | area with substrate EMLYFQS | area with substrate EYLYFQS
1 | T72K | 0.125 | 0.121 | 0.143 | 0.121 | 0.0991 | 0.116 | 0.0922 | 0.111 | 0.123 | 0.131 | 0.104 | 0.155 | 0.0956 | 0.0733 |  |  |  | 
2 | T192R | 0.13 | 0.113 |  | 0.0883 | 0.114 | 0.124 | 0.0945 | 0.0953 | 0.0995 | 0.0573 | 0.0976 | 0.11 | 0.108 | 0.0619 | 0.142 | 0.0996 | 0.09 | 0.105
3 | S60T | 0.088 | 0.123 | 0.104 |  | 0.0994 | 0.102 | 0.113 |  | 0.113 | 0.0974 | 0.108 |  | 0.0977 |  |  | 0.101 |  | 0.0908
4 | E25I | 0.111 | 0.0799 | 0.135 | 0.0753 | 0.0812 | 0.133 | 0.111 | 0.081 | 0.129 | 0.104 | 0.115 | 0.218 | 0.0965 | 0.098 |  |  | 0.095 | 0.0934
5 | G138H | 0.0884 |  |  | 0.0673 |  | 0.124 |  | 0.103 |  |  | 0.0688 |  |  |  | 0.0689 |  | 0.129 | 
6 | G80M | 0.107 |  | 0.104 |  |  |  |  | 0.0966 | 0.125 | 0.112 | 0.111 |  | 0.0676 | 0.0768 | 0.121 | 0.107 |  | 0.161
7 | C152Y | 0.0724 | 0.0512 |  | 0.0281 |  | 0.0559 |  |  |  |  |  |  |  | 0.047 |  |  | 0.0523 | 
8 | V183K | 0.0502 | 0.0743 |  |  | 0.065 | 0.0286 | 0.0585 |  | 0.0517 |  | 0.06 |  | 0.0366 | 0.0427 | 0.04 |  |  | 
9 | A207I | 0.0802 |  |  |  | 0.102 | 0.108 |  |  | 0.0617 |  | 0.0569 |  | 0.12 |  |  |  | 0.0949 | 0.0928
10 | G8W | 0.0945 | 0.0858 |  |  |  | 0.106 | 0.0581 | 0.102 | 0.0985 |  |  |  | 0.0702 | 0.104 |  |  | 0.119 | 0.118
11 | K216N | 0.107 |  | 0.0986 |  | 0.0863 | 0.116 | 0.0805 |  | 0.0754 | 0.0933 |  |  | 0.094 |  |  | 0.109 | 0.0947 | 
12 | F101W | 0.109 | 0.163 |  |  | 0.107 |  |  | 0.132 | 0.0989 | 0.118 | 0.118 | 0.118 | 0.107 |  | 0.135 |  | 0.106 | 0.113
13 | T31Q | 0.111 | 0.108 | 0.0754 |  | 0.0479 | 0.074 |  | 0.118 | 0.0987 | 0.0845 | 0.087 | 0.114 | 0.0762 |  |  |  |  | 
14 | L77K | 0.0471 |  | 0.0572 |  | 0.0684 |  |  |  |  |  | 0.0757 |  |  | 0.0561 | 0.0496 | 0.0457 |  | 
15 | T119E | 0.0761 | 0.137 |  | 0.111 |  |  |  |  |  | 0.118 |  |  | 0.13 |  | 0.109 | 0.112 | 0.152 | 
16 | V165N | 0.0576 |  |  |  |  |  | 0.0782 |  | 0.0588 | 0.0357 |  |  |  |  | 0.0439 | 0.051 |  | 

From the supplement of paper PMC12217912
